From ChEMBL document CHEMBL4888484, “Replenishing the malaria drug discovery pipeline: Screening and hit evaluation of the MMV Hit Generation Library 1 (HGL1) against asexual blood stage Plasmodium falciparum ,using a nano luciferase reporter read-out” (2022) come the findings set out here.

Molecules are shown by their SMILES. Out of some 150,000 compounds screened, about 540 (0.36%) showed an effect of 50% or more. The list shows a part of the results.

This test deals with Plasmodium falciparum. The experiment in a line: Primary screen in NF54 nanoGlo assay, in single point, at 2uM, 72h; a lower Z score goes with more inhibition. In kind it is functional, Erythrocyte. As to conditions: timepoint 72 hour.
The term % Inhibition denotes the drop in the measured response relative to a control, in per cent. As for `Cc1cc(=O)c(OCC(=O)Nc2cccnc2)c[nH]1`, the “% Inhibition” value is listed as -7% and the Z score is on record as 0.93.
On to `NC(=O)[C@@H]1C[C@@H](F)CN1S(=O)(=O)c1cc(Cl)sc1Cl`, for which the “% Inhibition” value is recorded as -3% and the Z score turned out to be 0.33.
Regarding `Cc1ccc(C(=O)CCN2CCCC[C@@H]2Cn2ccnn2)cc1`, the “% Inhibition” value came out at 5% and the Z score was -0.69.
The like results for `CCCN(CC(=O)N(Cc1ccccc1)Cc1ccc(C)o1)C(=O)c1ccco1` were, in that order, 26% and 0.45.
Regarding `O=C(Cc1cc(F)c(F)cc1F)NS(=O)(=O)CCC(F)(F)F`, the “% Inhibition” value came to 5% and the Z score is on record as -0.9.
Turning to `Cc1cccc([C@@H](C)CNC(=O)NCCC2(C)OCCO2)c1`, the “% Inhibition” value is -6% and the Z score amounted to 0.84.
Consider `Cc1conc1C(=O)N1CCCC[C@@]12CCOC2`, for which the “% Inhibition” value is reported as -12% and the Z score is recorded as 1.28.
Regarding `COc1ccc([C@H]2C[C@H](NC(=O)c3cc(O)ccn3)C2)cc1F`, the “% Inhibition” value is recorded as -14% and the Z score is 2.83.
Turning to `COc1cc(-c2ccc3c(c2)OCCO3)ncn1`, the “% Inhibition” value is -9% and the Z score was determined as 0.88.
`O=C(NC1CCCCC1)c1ccc(-n2cnnn2)cc1`: the “% Inhibition” value is recorded as 7% and the Z score is recorded as -0.9.
The like results for `COC(C)(C)C(=O)N1CC[C@]23C(=O)N(CC(=O)NCCCOc4cccc(c4)[C@H]12)c1ccccc13` were, in that order, -4% and 0.42.
With `Cc1cccc(N2CCC[C@H](c3cn[nH]c3)C2)n1`, the “% Inhibition” value was -4% and the Z score turned out to be 0.37.
The corresponding values for `CC(C)N1CCC(N2CCN(c3cnc4ccccc4n3)C[C@@H]2CCO)CC1` are 4% and -0.58.
Regarding `COCCN(CCOc1ccccc1F)Cc1cccc(OC)c1O[C@@H](C)C(=O)O`, the “% Inhibition” value is 0% and the Z score was -0.05.
The like results for `Cc1cc(C(=O)Nc2cc(Cl)ccc2C)c2c(C)nn(-c3cccc(F)c3)c2n1` were, in that order, -10% and 1.02.
As for `COc1ncc(NC(=O)Cc2ccc(F)cc2)cn1`, the “% Inhibition” value is listed as -6% and the Z score is recorded as 1.23.
The like results for `CCN(CC)CCCNC(=O)C1CCN(c2c(NC(C)=O)c(C)nn2-c2ccccc2)CC1` were, in that order, -8% and 1.14.
On to `CCN1C(=O)COc2ccc(-c3noc(-c4cnccn4)n3)cc21`, for which the “% Inhibition” value worked out at 7% and the Z score was -0.79.
Turning to `CCc1nc(CNC(=O)NCCc2nc(C)cs2)cs1`, the “% Inhibition” value is on record as 34% and the Z score was -3.82.
`Clc1ccc([C@H](CNc2nn3cnnc3c3ccccc23)N2CCCCC2)cc1`: the “% Inhibition” value is on record as -8% and the Z score came to 1.16.
For the compound `O=C(CN(CCO)Cc1ccsc1)Nc1ccnn1C1CCCC1`, the “% Inhibition” value was -4% and the Z score came out at 0.65.
As to `Cc1c(Cl)cccc1-n1ccn2c(=O)n(Cc3cccc(F)c3)nc2c1=O`, the “% Inhibition” value is -15% and the Z score is 1.8.
The like results for `CCc1c(-c2ccc(N(C)C)nc2)cnn1C` were, in that order, -5% and 1.08.
For the compound `CC(=O)c1ccc(NC(=O)c2cc(C)nc(O)c2)cc1Cl`, the “% Inhibition” value is listed as -2% and the Z score amounted to 0.27.
In the case of `CCc1cccc(NC(=O)N2CCN(c3nc4ccncc4n(CC(C)C)c3=O)CC2)c1`, the “% Inhibition” value is recorded as -4% and the Z score is listed as 0.35.
The like results for `CN(c1ccccc1NCCCS(C)(=O)=O)C1CCCC1` were, in that order, 0% and 0.04.
For `O=C1CCN(Cc2cccs2)CCN1CC1CCCCC1`, the “% Inhibition” value is on record as -6% and the Z score is 0.89.
Turning to `O=C(CC1(C(=O)O)CCCC1)Nc1cc(N2CCCC2=O)ccc1F`, the “% Inhibition” value came to 2% and the Z score is recorded as -0.36.
In the case of `CCCn1cc(N[C@@H](C)c2nc(C(C)C)no2)cn1`, the “% Inhibition” value was -12% and the Z score is 1.7.
For `COc1cc2c(cc1C(=O)N[C@@H]1[C@@H]3CCO[C@@H]3[C@H]1NC(C)=O)CCC2`, the “% Inhibition” value is recorded as 6% and the Z score is -0.79.
As to `Cc1cc2occ(CC(=O)NCc3ccccn3)c2c(C)c1Cl`, the “% Inhibition” value is 8% and the Z score is listed as -1.05.
For the compound `CCOC(=O)C[C@H](N)c1ccc(C)cc1C`, the “% Inhibition” value was -4% and the Z score is reported as 0.73.
In the case of `CCc1nc(C(=O)Nc2ccc(CN3CCOCC3)cc2)c[nH]1`, the “% Inhibition” value stood at 2% and the Z score is -0.28.
In the case of `Cc1n[nH]c(C)c1CC(=O)Nc1ccc2c(c1)N(C)CCO2`, the “% Inhibition” value is on record as -10% and the Z score stood at 1.
Turning to `CCOc1ccccc1NC(=O)N1CCC(N2CCN(Cc3ccccc3)C(=O)C2=O)CC1`, the “% Inhibition” value is -10% and the Z score is listed as 0.94.
For the compound `Cc1nn(C)cc1NC(=O)CC1CC2CCC1C2` (stereo unspecified), the “% Inhibition” value is on record as 2% and the Z score is recorded as -0.29.
Regarding `CC[C@H]1CN(Cc2ccc(CO)o2)Cc2ccc(Cl)cc2O1`, the “% Inhibition” value is listed as -6% and the Z score amounted to 1.11.
The like results for `Cc1cccc(S(=O)(=O)N2CCc3nc(N4CCCCC4)nc(Oc4ccc(F)c(C)c4)c3C2)c1` were, in that order, -2% and 0.22.
The corresponding values for `O=C(O)c1cc(-n2c(=O)[nH]c3ccccc32)ccc1O` are -1% and 0.19.
In the case of `Cc1cncc(Br)c1NC(=O)c1cc(CN(C)C)on1`, the “% Inhibition” value is listed as -7% and the Z score was 1.37.
In the case of `Cc1cc(C(=O)NCC[C@H](O)c2cc(C)oc2C)no1`, the “% Inhibition” value was -5% and the Z score stood at 1.06.
The like results for `O[C@H]1CCN(c2cc([C@H]3C[C@H](Nc4ncnc5sccc45)C3)ncn2)C1` were, in that order, -11% and 1.32.
For the compound `N#Cc1ccccc1OC1CCC(NC(=O)N[C@H]2CCCC23CCOCC3)CC1` (stereo partly specified), the “% Inhibition” value is -15% and the Z score is recorded as 2.
With `CC(CC1CCCN1C(=O)OC(C)(C)C)NCC(=O)NCC1CC1` (stereo unspecified), the “% Inhibition” value is given as -5% and the Z score is on record as 0.68.
Take `CC(C)Oc1ccc(S(=O)(=O)NCc2cc(C(C)C)no2)cc1`: the “% Inhibition” value worked out at 1% and the Z score is reported as -0.14.
Take `CC(C)(C)OC(=O)COC(=O)[C@@H]1CCCCN1Cc1ccccn1`: the “% Inhibition” value is on record as -14% and the Z score stood at 2.16.
As to `CN(Cc1cccnc1)Cc1ccc[nH]1`, the “% Inhibition” value was -10% and the Z score stood at 1.11.
On to `COc1cccc(NC(=O)NCCn2nc(C(F)(F)F)cc2C2CC2)c1OC`, for which the “% Inhibition” value was -4% and the Z score was 0.53.
Turning to `C=CCOc1ccc(Cl)cc1CN1CCC2(CC1)CNC(=O)C2`, the “% Inhibition” value is on record as -18% and the Z score was found to be 1.78.
On to `C[C@@H](C(=O)NCC1CCN(C(=O)C2CC=CC2)CC1)n1cccn1`, for which the “% Inhibition” value is -2% and the Z score was found to be 0.2.
Regarding `CCN(CC)c1onc(-c2ccccc2)c1CN(CC(C)C)C(=O)CC(C)C`, the “% Inhibition” value is recorded as 7% and the Z score is -0.75.
As for `O=C(NCC1CC(F)(F)C1)[C@H]1CC12CC2`, the “% Inhibition” value was -9% and the Z score was determined as 1.15.
The like results for `CCc1nc2cc(N)cc(C(=O)NCc3ccc(C)o3)c2n1CCCOC` were, in that order, -1% and 0.12.
On to `Cc1n[nH]c(C)c1CC(=O)N[C@@H]1C[C@H]1c1c(F)cccc1Cl`, for which the “% Inhibition” value is -16% and the Z score was found to be 2.94.
The like results for `C=CCN(Cc1ccc(F)cc1)C(=O)CCn1ccc(=O)[nH]c1=O` were, in that order, 16% and -2.03.
The corresponding values for `Cc1ccc(CNC(=O)c2ccc3nn(CC(=O)Nc4cc(C)ccc4C)c(=O)n3c2)cc1` are -3% and 0.28.
Regarding `CCCCN1CCn2nc(CN[C@H]3CCc4ccc(OC)cc4C3)cc2C1`, the “% Inhibition” value is recorded as -15% and the Z score is 2.92.
The like results for `C[C@@H](NC(=O)c1ccc2c(c1)OCO2)c1c(-c2ccc(F)cc2)noc1C(=O)O` were, in that order, 0% and -0.03.
As for `Cc1cc(C)c(S(=O)(=O)Nc2cccc(C(=O)N3CCC[C@H]3C(=O)NC(C)C)c2)cc1C`, the “% Inhibition” value came to 15% and the Z score is reported as -1.72.
Regarding `O=C(Cn1cnc(-c2noc(C3CC3)n2)c1)NCc1ccccc1Cl`, the “% Inhibition” value is -13% and the Z score came to 1.67.
As to `COc1ccccc1CCNC(=O)[C@@H]1CCCN1C1CCOCC1`, the “% Inhibition” value is reported as -8% and the Z score is reported as 0.85.
On to `O=C(CCNS(=O)(=O)c1ccc(F)c(F)c1)NCCS(=O)(=O)c1ccccc1`, for which the “% Inhibition” value is reported as -7% and the Z score was determined as 1.38.
The corresponding values for `CCn1nccc1-c1cc(NC(C)C)nc(N)n1` are -7% and 1.14.
Consider `Cc1ccc(-n2nc(C(=O)NCC3CC3)c(=O)n(Cc3ccccc3)c2=O)cc1C`, for which the “% Inhibition” value is -11% and the Z score is 2.04.
As to `Cc1ccc(C)c(-c2n[nH]cc2CN2CCN(C3CCN(C(C)C)CC3)[C@@H](CCO)C2)c1`, the “% Inhibition” value was -13% and the Z score was found to be 1.16.
On to `Cc1ccc(Br)c(NC(=O)C(=O)NCc2cc[nH]n2)c1`, for which the “% Inhibition” value is reported as -1% and the Z score is listed as 0.05.
Consider `Cc1cc(-c2cccc(C(=O)NCCCn3ccnn3)c2)cc(C)n1`, for which the “% Inhibition” value is given as 5% and the Z score is -0.76.
Turning to `Cc1n[nH]cc1CN(C)C(=O)[C@]1(c2ccccc2)CC12CCCC2`, the “% Inhibition” value is -13% and the Z score is listed as 1.84.
For `COc1ccccc1OC1(C(=O)O)CCN(Cc2cccnc2N)CC1`, the “% Inhibition” value is reported as -13% and the Z score came to 1.52.
Consider `CC1Cc2cc(F)ccc2C(C)N1C(=O)CCC(=O)c1cnn(C)c1` (stereo unspecified), for which the “% Inhibition” value is -7% and the Z score came to 0.96.
On to `CCOc1cccc(Cn2c(=O)c3sccc3n(Cc3nc(-c4ccccc4C)no3)c2=O)c1`, for which the “% Inhibition” value is on record as -9% and the Z score was found to be 1.11.
Regarding `CN(CC(N)=O)CC(=O)Nc1ccnn1CC1CCCCC1`, the “% Inhibition” value was -3% and the Z score is on record as 0.39.
Consider `COc1ccc(NC(=O)CNC(=O)c2cn(-c3ccccc3OC)c(=O)c3ccccc23)cc1OC`, for which the “% Inhibition” value is recorded as -2% and the Z score amounted to 0.28.
In the case of `C[C@@H](CC(=O)Nc1cc(S(=O)(=O)N2CCOCC2)ccc1OCC(F)(F)F)c1ccccc1`, the “% Inhibition” value was determined as 2% and the Z score is on record as -0.33.
With `COC(=O)C[C@H](NC(=O)c1oc(C)nc1C)C1CCCCC1`, the “% Inhibition” value is -4% and the Z score is 0.53.
Regarding `CCOc1ccc2c(c1)N=C(c1ccc(F)cc1)N=C(c1ccc(N(C)C)cc1)N2`, the “% Inhibition” value is -3% and the Z score is 0.32.
Regarding `Cc1ccc(-c2nc(N3C[C@@H](C)O[C@@H](C)C3)ncc2-c2cncnc2)cc1`, the “% Inhibition” value is listed as -11% and the Z score came to 1.72.
The corresponding values for `COc1ccc(-n2c(-c3ccccc3)cc(C(=O)N3CCN(c4cccc(C(F)(F)F)c4)CC3)c2C)c(OC)c1` are -7% and 1.16.
The corresponding values for `Cc1cnc(NC[C@]2(CO)COCCN2C)nc1` are 0% and -0.02.
`CN1C[C@@H](O)CNS(=O)(=O)c2ccccc2O[C@H]2CN(CC3CC3)C[C@H]21`: the “% Inhibition” value is recorded as 1% and the Z score is -0.2.
Consider `O=C(c1ccc(NS(=O)(=O)c2cnc3n2CCC3)cc1)C1CCC1`, for which the “% Inhibition” value is recorded as -17% and the Z score turned out to be 1.94.
The like results for `COc1ccc(S(=O)(=O)N2CCOCC2)cc1NC(=O)C1(c2ccc(F)cc2)CCC1` were, in that order, -4% and 0.8.
For `CC(=O)Nc1ccc(-n2ccnc2-c2nccn2C)cc1`, the “% Inhibition” value was found to be 2% and the Z score is recorded as -0.35.
